Reference: the supplement of paper PMC4166925
± gives the standard deviation of the averaged measurements. The full ranking holds about 33,000 sequences; the median of “E-score (dimensionless, -0.5 to 0.5)” is about -0.046, and the highest 2% start at about 0.36. The list shows a part of the results.

What follows are sequences tested on T1, SpTbr T-box DNA-binding domain (GST fusion) (assay: PBM E-score of 8-mer (E-score (dimensionless, -0.5 to 0.5)); Tbr is Tbrain of the sea star Patiria miniata (Pm) or the sea urchin Strongylocentrotus purpuratus (Sp); higher = stronger binding preference; most listed sequences are background and not binding sites). Details: the construct has about 5 more residues each side.
T1 sequence: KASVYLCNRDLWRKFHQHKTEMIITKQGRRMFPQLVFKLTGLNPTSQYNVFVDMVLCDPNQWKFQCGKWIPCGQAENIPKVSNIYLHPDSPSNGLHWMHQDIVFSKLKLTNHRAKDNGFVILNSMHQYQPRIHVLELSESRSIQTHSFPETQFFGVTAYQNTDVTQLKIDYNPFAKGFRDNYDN
How it was run: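 GST-fused Tbr T-box DNA-binding domains (the whole T-box plus about five flanking residues) were expressed in BL21 E. coli at 20 °C and purified by glutathione affinity chromatography. Universal Agilent oligonucleotide arrays were made double-stranded by primer extension, incubated with 200 nM protein in PBS (pH 7.5), then scanned and quantified. Every ungapped 8-mer was scored from probe intensities. The Universal PBM Analysis Suite gave each word an enrichment E-score, averaged over duplicate arrays.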

| Sequence | PBM E-score of 8-mer |
| --- | --- |
| ACAGTATC | 0.113 ± 0.0084 |
| ACGCGCCA | 0.201 ± 0.019 |
| AGTCAAGC | -0.172 ± 0.068 |
| CAAAGGAC | -0.12 ± 0.056 |
| ATTTTTAA | -0.188 ± 0.086 |
| CGATGGTA | -0.0517 ± 0.023 |
| GCAACACC | 0.439 ± 0.0069 |
| CCACCCAA | 0.0907 ± 0.022 |
| AATAACGG | 0.0267 ± 0.066 |
| GACGATGC | -0.0692 ± 0.033 |
| TCGCGAGA | 0.367 ± 0.01 |
| AGCTACGG | -0.266 ± 0.021 |
| CTCCTGTC | -0.0147 ± 0.043 |
| ATAAGGAG | -0.17 ± 0.13 |
| GCCGTTAC | -0.094 ± 0.051 |
| CTCCATCA | 0.106 ± 0.12 |
| GGTGGCAC | 0.3544 ± 0.0029 |
| AATGGGCA | -0.298 ± 0.029 |
| CGAAACCG | 0.0826 ± 0.038 |
| CAACTATC | 0.0911 ± 0.023 |
| GCCACAGA | -0.0181 ± 0.047 |
| CAACAAGG | 0.0674 ± 0.0062 |
| CTGTGCAC | 0.15 ± 0.047 |
| AAAAATGA | -0.118 ± 0.086 |
| AAGGGCCA | -0.259 ± 0.0051 |

| Sequence | PBM E-score of 8-mer |
| --- | --- |
| CGCGCAAA | 0.193 ± 0.03 |
| TCCACTAA | 0.0302 ± 0.044 |
| ACTCCTAA | -0.22 ± 0.069 |
| ACTGCGTA | -0.0821 ± 0.082 |
| ATAACATA | 0.0324 ± 0.023 |
| CGCCCGAG | 0.142 ± 0.038 |
| CTGGGTAA | -0.0932 ± 0.021 |
| AGCTTTCA | -0.132 ± 0.045 |
| ACCCCGAT | -0.0152 ± 0.031 |
| AATGGCCA | -0.211 ± 0.029 |
| AGCGTCGA | -0.0175 ± 0.056 |
| CAAACAGC | 0.105 ± 0.062 |
| GGTTGGAC | -0.1 ± 0.047 |
| CGACGGTC | -0.0771 ± 0.066 |
| AAGTGCTA | 0.419 ± 0.014 |
| TGGCTACA | -0.132 ± 0.023 |
| CAAACAAA | -0.0454 ± 0.038 |
| AAGGGAGA | -0.13 ± 0.033 |
| CACCTTGC | 0.389 ± 0.013 |
| GCTGCATA | -0.15 ± 0.0083 |
| GATCATGA | -0.161 ± 0.012 |
| CTCATCAC | 0.238 ± 0.031 |
| AATGTGCT | 0.13 ± 0.054 |
| TCCGGTCA | 0.0538 ± 0.015 |
| ACGCTTTC | 0.105 ± 0.012 |

| Sequence | PBM E-score of 8-mer |
| --- | --- |
| CTGGCATC | -0.059 ± 0.0047 |
| AGGGCCTA | -0.283 ± 0.053 |
| AATCCGCA | 0.0155 ± 0.0028 |
| AAGGTATC | 0.063 ± 0.032 |
| CTGGCGTA | -0.0113 ± 0.021 |
| CTATGGTC | -0.162 ± 0.013 |
| ATCGGGTG | 0.176 ± 0.035 |
| CTGCCCCA | 0.0148 ± 0.061 |
| ATACACGC | 0.0637 ± 0.049 |
| GAAACTAA | 0.0489 ± 0.052 |
| GCTATGAA | -0.259 ± 0.0066 |
| AACACAAT | 0.183 ± 0.018 |
| ATTGTACG | 0.0167 ± 0.03 |
| GTCCAGTA | -0.25 ± 0.006 |
| CACTACTG | 0.0811 ± 0.066 |
| GAAGGCCA | -0.1674 ± 0.0011 |
| AATAACAA | 0.0974 ± 0.1 |
| CCAAGCCA | -0.264 ± 0.0072 |
| AAGAAAAG | -0.304 ± 0.018 |
| TCGTACAA | -0.071 ± 0.046 |
| GGGGCGTA | -0.0823 ± 0.049 |
| CACTACCG | 0.157 ± 0.017 |
| CCGGCTGA | -0.175 ± 0.06 |
| ACTTTGTC | 0.206 ± 0.0032 |
| CCAGCTCA | 0.0203 ± 0.044 |

| Sequence | PBM E-score of 8-mer |
| --- | --- |
| CCCAGATA | -0.114 ± 0.0093 |
| ATTGACCG | -0.2 ± 0.011 |
| ATCTTATA | -0.142 ± 0.01 |
| ACCATTCA | 0.0676 ± 0.0009 |
| CAACGCGG | 0.116 ± 0.017 |
| ACAGCCGC | 0.0983 ± 0.015 |
| TCGACACA | 0.315 ± 0.032 |
| ATAGAGTA | -0.143 ± 0.084 |
| ACAAGCCG | 0.0757 ± 0.024 |
| GAACACGA | 0.134 ± 0.011 |
| GGTTCAAC | -0.191 ± 0.03 |
| AAGATAGT | -0.0458 ± 0.032 |
| GTCGGGAA | -0.0482 ± 0.12 |
| CCCCCGTA | -0.118 ± 0.0072 |
| CTACTGAA | -0.0616 ± 0.096 |
| TACTTCAA | -0.268 ± 0.072 |
| CGGGCAAG | -0.14 ± 0.014 |
| CCTACCTC | -0.0944 ± 0.045 |
| CTATATTA | 0.0961 ± 0.071 |
| ATGACCCA | 0.0214 ± 0.029 |
| CCCATAGC | -0.0872 ± 0.052 |
| CCAAATTC | 0.0501 ± 0.069 |
| ATTGTAGG | -0.0404 ± 0.012 |
| CCCTGGAG | -0.163 ± 0.028 |
| AGGGGACA | -0.0306 ± 0.072 |

| Sequence | PBM E-score of 8-mer |
| --- | --- |
| ATACGTAC | -0.106 ± 0.049 |
| ATTACAGA | -0.129 ± 0.08 |
| AAGAAGTG | 0.215 ± 0.037 |
| CGTTCATC | -0.124 ± 0.027 |
| CAAGGTAC | -0.00393 ± 0.044 |
| CATGTCTC | -0.122 ± 0.052 |
| CAACGTAA | -0.126 ± 0.083 |
| ATAATTGC | -0.0597 ± 0.05 |
| CGATAAGA | 0.0897 ± 0.13 |
| CGTCTGAG | -0.143 ± 0.043 |
| GGTGGCAA | 0.4 ± 0.011 |
| AGAGTTGG | -0.0633 ± 0.02 |
| ACTTCACC | 0.111 ± 0.026 |
| AGCTTATA | -0.145 ± 0.034 |
| CCCTGAGC | -0.067 ± 0.045 |
| CATTGGAA | -0.0666 ± 0.03 |
| ACCATCAG | 0.13 ± 0.018 |
| CGGGGGAC | -0.117 ± 0.088 |
| CAAAGTAG | -0.0627 ± 0.067 |
| AATCTCCA | -0.0617 ± 0.0052 |
| ACTATAGG | -0.0444 ± 0.017 |
| GACTTCTA | -0.0712 ± 0.036 |
| AGGCAGAC | -0.227 ± 0.0024 |
| ACTCGACT | -0.0975 ± 0.099 |
| GAGCCCAC | -0.0561 ± 0.063 |

| Sequence | PBM E-score of 8-mer |
| --- | --- |
| CCTGAACA | 0.0575 ± 0.025 |
| ACGGTGGA | -0.246 ± 0.047 |
| CCTAAGTC | -0.0819 ± 0.023 |
| AGTGAAAT | 0.168 ± 0.083 |
| CTGGCCTC | -0.1768 ± 0.00059 |
| CCTCTAAG | 0.0434 ± 0.088 |
| GGGCGTAA | 0.131 ± 0.047 |
| AGGAGTTC | -0.0878 ± 0.073 |
| AACTTCAG | -0.23 ± 0.022 |
| AAGTGTAC | 0.00907 ± 0.056 |
| GGTTGAAA | -0.0413 ± 0.0068 |
| GTGATTGA | 0.129 ± 0.017 |
| CGCAAACC | -0.00956 ± 0.028 |
| AAGGAAGA | -0.274 ± 0.015 |
| ACCTGCTG | 0.0521 ± 0.065 |
| AAACCCGA | -0.0333 ± 0.034 |
| AGGCATGC | -0.293 ± 0.058 |
| CGCGAGAC | 0.362 ± 0.0035 |
| CCCATGTA | -0.15 ± 0.095 |
| GAGATAGA | -0.129 ± 0.048 |
| TCCATGGA | -0.299 ± 0.02 |
| GGCCTCTA | -0.108 ± 0.024 |
| TAGTGTAA | 0.216 ± 0.061 |
| TATGCCCA | -0.172 ± 0.0048 |
| AAATGCAC | -0.0295 ± 0.012 |

| Sequence | PBM E-score of 8-mer |
| --- | --- |
| ATCAAGTG | 0.141 ± 0.055 |
| CCATATTA | -0.0793 ± 0.042 |
| ATGCTCAC | 0.277 ± 0.023 |
| CCTTCGCC | 0.0466 ± 0.011 |
| ATTCGCGG | 0.275 ± 0.026 |
| ACATCTCC | 0.104 ± 0.048 |
| AAGTCTAA | -0.0918 ± 0.066 |
| CAATTTAG | -0.0519 ± 0.043 |
| CGGGTCGC | 0.232 ± 0.0024 |
| TAGGTAAA | -0.134 ± 0.015 |
| TGTAGAAA | -0.0991 ± 0.044 |
| TCTCATAA | -0.196 ± 0.12 |
| AACCACTT | -0.0435 ± 0.018 |
| AGCTTCCC | -0.121 ± 0.055 |
| TGCTACAA | -0.124 ± 0.023 |
| AACCTGGA | -0.129 ± 0.067 |
| CCCCTCAG | -0.232 ± 0.0077 |
| CATACAAC | 0.0189 ± 0.0052 |
| CCGGATTC | 0.0737 ± 0.067 |
| CTCCTACA | 0.00648 ± 0.019 |
| CTTAATGC | -0.177 ± 0.047 |
| AAACAATT | -0.0761 ± 0.074 |
